Measurements as given in patent publication US20070280957A1, “Change of the Load State of Mhc Molecules” (priority 2004, published 2007).

Assays:
[1] = tested on: HLA-DR1 (DRB1*0101) transgenic mice; test: Vaccination with ABL protein domain in complete Freund's adjuvant, ELISPOT of lymph node cells; format: in vivo; conditions: 10 mM as additive to antigen emulsion in complete Freund's adjuvant, subcutaneous, 12 days
Protocol: In this example, HLA-DR1 (DRB1*0101) transgenic mice were immunised with 10 mg of a domain of the ABL protein prepared by recombinant methods. The immunisation was carried out by subcutaneous administration of an emulsion of the antigen in complete Freund's adjuvant, which in the case of one group was additionally supplemented with 10 mM AdEtOH. The immune response triggered by the vaccination was then checked 12 days later by means of an ELISPOT assay. To this end, in each case about 10^6 lymph node cells/well were transferred to culture plates coated with membrane filters and restimulated with titrated amounts of the antigen. Activation of a cell leads to the release of cytokines, such as, for example, IFN-g, which can be detected on the membrane by means of corresponding antibodies (see FIG. 15).

[2] = tested on: HLA-DR molecules with a deep or flat P1 pocket (β86G and β86V); test: T-cell assays on HLA-DR molecules with a deep or flat P1 pocket; format: cell-based, human; conditions: dose-activity curves
Protocol: In the following, the catalysis of HLA loading by pCP was determined for the purposes of comparison. […] These dose-activity curves show the activity of the two catalysts on HLA-DR molecules with a deep or flat P1 pocket {β86G and β86V} as well as on the mouse MHC class II molecules H2-Ek and H2-Ak.

## OCCC12CC3CC(CC(C3)C1)C2 [I 1, 2-(1-adamantyl)-ethanol]
[1]
  T-cells reacting against the ABL domain (ELISPOT spots): markedly more T-cells
  efficiency of the vaccination: considerable increase in the efficiency of the vaccination
[2]
  activity on HLA-DR molecules with deep or flat P1 pocket: greater but is directed towards those HLA-DR molecules which possess the deep P1 pocket
